The source of these data is the supplement of paper PMC4967469.

Holding throughout (assay): Viability of human cancer cell lines after 72 h of drug (GDSC screen)
Compound in one assay: C/C=C(/C)C(=O)O[C@H]1C(C)=C2[C@H]([C@@H]1OC(=O)CCCCCCC)[C@@](C)(OC(C)=O)C[C@H](OC(=O)CCC)[C@@]1(O)[C@H]2OC(=O)[C@@]1(C)O [Thapsigargin]
The settings on record: top dose 0.512 µM; top dose inferred. On the procedure:
(§1)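 Human cancer cell lines in 384-well plates, medium with 10% serum, drug for 72 h over a 256-fold dose range (nine 2-fold or five 4-fold steps up to the top dose). Adherent lines were fixed and stained with the nucleic acid dye Syto60, suspension lines read with resazurin; signal relative to control wells, capped at 0 and 100%. One two-parameter sigmoid per drug and line, fitted in a mixed model over all curves with the slope shared within a line.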

Compound in the next assay: CCn1c(-c2nonc2N)nc2cnc(Oc3cccc(NC(=O)c4ccc(OCCN5CCOCC5)cc4)c3)cc21 [GSK269962A]
The settings on record: top dose 5 µM; screen: GDSC drug entry 1192; top dose inferred. How it is done: as §1

Compound in a further assay: COc1cc(O)c2c(c1)/C=C/C[C@H](O)[C@H](O)C(=O)/C=C\C[C@H](C)OC2=O [(5Z)-7-Oxozeaenol]
The settings on record: top dose 10 µM; top dose inferred. On the procedure: as §1

Compound in the next assay: C[C@]1(c2nc3c(C(N)=O)cccc3[nH]2)CCCN1 [ABT-888]
The settings on record: top dose 5 µM; top dose inferred. On the procedure:
as §1

Compound in the next assay: Cc1cnc(-c2cnc(NCCNc3ccc(C#N)cn3)nc2-c2ccc(Cl)cc2Cl)[nH]1 [CHIR-99021]
On the procedure:
as §1

Compound in a further assay: Nc1ccn([C@@H]2O[C@H](CO)[C@@H](O)[C@@H]2O)c(=O)n1 [Cytarabine]
The settings on record: top dose 2 µM. How it is done:
as §1

Compound in another assay: O=c1cc(-c2cccc3c2Sc2ccccc2S3)oc(N2CCOCC2)c1 [KU-55933]
The settings on record: top dose 10 µM. On the procedure:
as §1

Compound in another assay: COc1cc2ncnc(-n3nc(-c4ccccn4)nc3N)c2cc1OC [CP466722]
The settings on record: top dose 16 µM; top dose inferred. How it is done:
as §1

Compound in the next assay: C=CC(=O)Nc1cc(-n2c(=O)ccc3cnc4ccc(-c5cn[nH]c5)cc4c32)ccc1C [QL-X-138]
The settings on record: top dose 10.24 µM; top dose inferred. On the procedure:
as §1

Compound in the next assay: COc1cc(N2CCC(O)CC2)ccc1Nc1cc(Nc2ccccc2S(=O)(=O)C(C)C)c2cc[nH]c2n1 [MPS-1-IN-1]
The settings on record: top dose 20 µM; top dose inferred. On the procedure: as §1

Compound in another assay: COc1nc(C)cnc1NS(=O)(=O)c1cccnc1-c1ccc(-c2nnco2)cc1 [Zibotentan]
The settings on record: top dose 20 µM; top dose inferred. How it is done:
as §1

Compound in a further assay: Cc1ccc(F)c(NC(=O)Nc2ccc(-c3cccc4[nH]nc(N)c34)cc2)c1 [ABT-869]
The settings on record: top dose 1.024 µM; top dose inferred. On the procedure:
as §1

[1] abbreviates: top dose 2.56 µM, screen: GDSC drug entry 154.
Setting [2] is: top dose 10 µM, screen: GDSC drug entry 1241, top dose inferred.

Lines with a small IC50 respond at low doses; a fit beyond the top or the lowest dose is shown as a bound at that dose. For AUC the same curve is integrated over the 256-fold range of doses and scaled to a fraction: 1 means no effect, lower means more sensitive. For some of these results: Any top dose called inferred is not printed in the source and was worked back from the curve model. For some of these results: Where an entry number is given, a second screen of the drug exists; the two often differ. Where only a bound is given, the exact number is not on record here.

By IC50 is commonly meant the concentration that gives 50% inhibition.

On to JHU-029 (head and neck, adherent), for which the AUC worked out at 0.36 in the assay with Thapsigargin; 0.936 in the assay with GSK269962A; 0.571 in the assay with (5Z)-7-Oxozeaenol; 0.961 with ABT-888; 0.98 with CHIR-99021 (setting [1]); 0.977 in the assay with CHIR-99021 (setting [2]). Also, the AUC with Cytarabine was 0.605; with KU-55933 it was 0.979. Besides, the IC50 with Thapsigargin is 11.9 nM; with GSK269962A, above 5 µM; with (5Z)-7-Oxozeaenol, 1020 nM; with ABT-888 it was above 5 µM; with CHIR-99021 (setting [1]), above 2560 nM; with CHIR-99021 (setting [2]) it was above 10000 nM. In addition, the results for the half-inhibitory concentration (IC50) with Cytarabine and with KU-55933 were 260 nM and above 10 µM, respectively.
Regarding KP-1N (pancreas, adherent), the AUC in the assay with Thapsigargin was determined as 0.124; with GSK269962A, 0.918; in the assay with (5Z)-7-Oxozeaenol it was 0.746; with CP466722 it was 0.557; with ABT-888 it was 0.982; with CHIR-99021 (setting [1]), 0.983. In addition, the AUC with CHIR-99021 (setting [2]) was found to be 0.958; in the assay with Cytarabine, 0.786; with KU-55933, 0.973. Also, the IC50 in the assay with Thapsigargin was below 2 nM; with GSK269962A, above 5 µM; with (5Z)-7-Oxozeaenol, 3310 nM; with CP466722, 1.44 µM; with ABT-888 it was above 5 µM; in the assay with CHIR-99021 (setting [1]), above 2560 nM. Moreover, the half-maximal inhibitory concentration (IC50) with CHIR-99021 (setting [2]) was above 10000 nM; with Cytarabine it was 912 nM; with KU-55933, above 10 µM.
For “NCI-H3122 (lung adenocarcinoma, adherent)”, the AUC was found to be 0.218 with Thapsigargin; 0.769 with QL-X-138; 0.507 in the assay with MPS-1-IN-1; 0.837 with CP466722; 0.982 in the assay with Zibotentan; 0.987 in the assay with ABT-888. The AUC with ABT-869 was 0.983; with CHIR-99021 (setting [1]), 0.974; in the assay with Cytarabine, 0.691; with KU-55933 it was 0.966. For the same cell line, the IC50 was 4.64 nM with Thapsigargin; 3960 nM in the assay with QL-X-138; 1.3 µM in the assay with MPS-1-IN-1; 11.1 µM in the assay with CP466722; above 20 µM with Zibotentan; above 5 µM with ABT-888. The half-maximal inhibitory concentration (IC50) was above 1020 nM with ABT-869, above 2560 nM in the assay with CHIR-99021 (setting [1]), 437 nM with Cytarabine and above 10 µM in the assay with KU-55933.
As to PA-1 (ovary, adherent), the AUC in the assay with Thapsigargin worked out at 0.107; in the assay with QL-X-138 it was 0.31; with MPS-1-IN-1 it was 0.705; with CP466722, 0.566; with Zibotentan, 0.977; with ABT-888 it was 0.992. Besides, the AUC with ABT-869 amounted to 0.993; in the assay with CHIR-99021 (setting [1]), 0.934; with Cytarabine, 0.718; with KU-55933, 0.967. Besides, the IC50 is 2.71 nM with Thapsigargin; 215 nM with QL-X-138; 4.05 µM with MPS-1-IN-1; 1.45 µM in the assay with CP466722; above 20 µM with Zibotentan; above 5 µM with ABT-888. For the same cell line, the IC50 with ABT-869 is above 1020 nM; with CHIR-99021 (setting [1]) it was above 2560 nM; with Cytarabine it was 440 nM; with KU-55933 it was above 10 µM.
Turning to RCC-FG2 (kidney, adherent), the AUC in the assay with QL-X-138 was determined as 0.789; with GSK269962A, 0.932; with MPS-1-IN-1, 0.961; with (5Z)-7-Oxozeaenol it was 0.78; in the assay with CP466722, 0.831; with Zibotentan, 0.981. The AUC came out at 0.974 with ABT-888; 0.974 in the assay with ABT-869; 0.84 with CHIR-99021 (setting [2]); 0.648 in the assay with Cytarabine; 0.839 with KU-55933. Further, the half-maximal inhibitory concentration (IC50) with QL-X-138 is 5960 nM; in the assay with GSK269962A, above 5 µM; with MPS-1-IN-1, above 20 µM; with (5Z)-7-Oxozeaenol, 5320 nM; with CP466722, 14.1 µM; with Zibotentan, above 20 µM. For the same cell line, the 50% inhibitory concentration (IC50) in the assay with ABT-888 is above 5 µM; with ABT-869, above 1020 nM; with CHIR-99021 (setting [2]), 9810 nM; with Cytarabine, 360 nM; with KU-55933, 9.72 µM.
RCC-JW (kidney, adherent): the AUC amounted to 0.191 with QL-X-138; 0.841 with GSK269962A; 0.983 in the assay with MPS-1-IN-1; 0.394 with (5Z)-7-Oxozeaenol; 0.696 in the assay with CP466722; 0.986 with Zibotentan. Moreover, the AUC in the assay with ABT-888 amounted to 0.986; with ABT-869, 0.966; with CHIR-99021 (setting [2]) it was 0.643; with Cytarabine it was 0.646; with KU-55933, 0.946. In addition, the IC50 with QL-X-138 is 74.1 nM; in the assay with GSK269962A, 3.62 µM; with MPS-1-IN-1, above 20 µM; in the assay with (5Z)-7-Oxozeaenol, 318 nM; with CP466722, 3.62 µM; in the assay with Zibotentan, above 20 µM. For the same cell line, the IC50 is above 5 µM with ABT-888; above 1020 nM in the assay with ABT-869; 1570 nM in the assay with CHIR-99021 (setting [2]); 320 nM in the assay with Cytarabine; above 10 µM with KU-55933.
